This is an account of results in the supplement of paper PMC7125110.

Sequences and labels used below:
B1: glmS ribozyme (parent)
chain: AUAAAAGCGCCAGAACUACAGAAAUGUAGUUGACGAGGAGGAGGUUUAUCGAAUUUUCGGCGGAUGCCUCCAAA

Common to all, as to details: with glucosamine-6-phosphate
In series [1] the parent is B1. The series can be described thus: self-cleavage kobs at 40 uM GlcN6P; higher = faster cleavage; RNA array. The essentials: (§1)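 Glucosamine-6-phosphate in HEPES/KCl/Mg(OAc)2 buffer, at 40 μM to 10 mM, was flowed over barcoded ribozyme variants transcribed in situ by E. coli RNA polymerase on sequenced MiSeq chips. Tracking was through a hybridised Cy3 probe at 37 °C. kobs, kcat and KM came from exponential decay fits and weighted Michaelis–Menten fits of normalised per-tile medians.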

Variants of B1 are the subject of series [2]. In words: self-cleavage kobs at 10000 uM GlcN6P; higher = faster cleavage; RNA array. The essentials: as §1
The variants in series [3] derive from B1. The series can be described thus: self-cleavage kobs at 640 uM GlcN6P; higher = faster cleavage; RNA array. In outline:
as §1

The variants in series [4] derive from B1. The series can be described thus: self-cleavage kobs at 160 uM GlcN6P; higher = faster cleavage; RNA array. The essentials:
as §1

The variants in series [5] derive from B1. In words: self-cleavage kobs at 2500 uM GlcN6P; higher = faster cleavage; RNA array. The essentials:
as §1

Variants at the background level are over-represented here.

G9C G43A G44U C70G: the “self-cleavage kobs at 40 uM GlcN6P” value with glucosamine-6-phosphate [1] is less than 1e-05 s⁻¹. Besides, in the series with glucosamine-6-phosphate [2], the “self-cleavage kobs at 10000 uM GlcN6P” value was less than 1e-05 s⁻¹.

In the case of C10G G37U G40U, in the series with glucosamine-6-phosphate [1], the “self-cleavage kobs at 40 uM GlcN6P” value is less than 1e-05 s⁻¹. The “self-cleavage kobs at 640 uM GlcN6P” value with glucosamine-6-phosphate [3] was less than 1e-05 s⁻¹.

Take G9U A14U G32U: the “self-cleavage kobs at 40 uM GlcN6P” value with glucosamine-6-phosphate [1] was less than 1e-05 s⁻¹. Besides, the “self-cleavage kobs at 10000 uM GlcN6P” value in the series with glucosamine-6-phosphate [2] is less than 1e-05 s⁻¹.

Take C10G A14G U45C: the “self-cleavage kobs at 40 uM GlcN6P” value in the series with glucosamine-6-phosphate [1] was less than 1e-05 s⁻¹.

As for C10G U49A, the “self-cleavage kobs at 40 uM GlcN6P” value in the series with glucosamine-6-phosphate [1] is less than 1e-05 s⁻¹. Also, the “self-cleavage kobs at 640 uM GlcN6P” value with glucosamine-6-phosphate [3] was less than 1e-05 s⁻¹.

With C10G U49G, the “self-cleavage kobs at 40 uM GlcN6P” value with glucosamine-6-phosphate [1] was less than 1e-05 s⁻¹. Also, the “self-cleavage kobs at 640 uM GlcN6P” value with glucosamine-6-phosphate [3] was less than 1e-05 s⁻¹. Besides, the “self-cleavage kobs at 160 uM GlcN6P” value in the series with glucosamine-6-phosphate [4] is less than 1e-05 s⁻¹.

Take C10A C11U G40A: in the series with glucosamine-6-phosphate [1], the “self-cleavage kobs at 40 uM GlcN6P” value was less than 1e-05 s⁻¹. The “self-cleavage kobs at 10000 uM GlcN6P” value with glucosamine-6-phosphate [2] was less than 1e-05 s⁻¹.

Regarding G9C G13A A48U, the “self-cleavage kobs at 40 uM GlcN6P” value with glucosamine-6-phosphate [1] was less than 1e-05 s⁻¹. Moreover, the “self-cleavage kobs at 2500 uM GlcN6P” value in the series with glucosamine-6-phosphate [5] was less than 1e-05 s⁻¹.

With C10U A14U A42U, the “self-cleavage kobs at 40 uM GlcN6P” value with glucosamine-6-phosphate [1] is less than 1e-05 s⁻¹. For the same variant, in the series with glucosamine-6-phosphate [2], the “self-cleavage kobs at 10000 uM GlcN6P” value was less than 1e-05 s⁻¹.

Regarding G9C C16U U49A C61U, the “self-cleavage kobs at 40 uM GlcN6P” value in the series with glucosamine-6-phosphate [1] is less than 1e-05 s⁻¹. For the same variant, the “self-cleavage kobs at 10000 uM GlcN6P” value in the series with glucosamine-6-phosphate [2] was less than 1e-05 s⁻¹.

As to C10G C11U G44A U55C C71G, the “self-cleavage kobs at 40 uM GlcN6P” value with glucosamine-6-phosphate [1] is less than 1e-05 s⁻¹. Besides, in the series with glucosamine-6-phosphate [3], the “self-cleavage kobs at 640 uM GlcN6P” value was less than 1e-05 s⁻¹. Also, in the series with glucosamine-6-phosphate [5], the “self-cleavage kobs at 2500 uM GlcN6P” value was less than 1e-05 s⁻¹. Moreover, in the series with glucosamine-6-phosphate [2], the “self-cleavage kobs at 10000 uM GlcN6P” value is less than 1e-05 s⁻¹.

Regarding G9U G13A U45G, in the series with glucosamine-6-phosphate [1], the “self-cleavage kobs at 40 uM GlcN6P” value was less than 1e-05 s⁻¹. For the same variant, the “self-cleavage kobs at 10000 uM GlcN6P” value with glucosamine-6-phosphate [2] is less than 1e-05 s⁻¹.

Turning to G9U A12U U30G U55A, the “self-cleavage kobs at 40 uM GlcN6P” value in the series with glucosamine-6-phosphate [1] was less than 1e-05 s⁻¹. Besides, in the series with glucosamine-6-phosphate [2], the “self-cleavage kobs at 10000 uM GlcN6P” value is less than 1e-05 s⁻¹.

As to G9C G40U U56A C58G, in the series with glucosamine-6-phosphate [1], the “self-cleavage kobs at 40 uM GlcN6P” value was less than 1e-05 s⁻¹. Moreover, the “self-cleavage kobs at 10000 uM GlcN6P” value with glucosamine-6-phosphate [2] is less than 1e-05 s⁻¹.

On to C10A C67G C68A, for which the “self-cleavage kobs at 40 uM GlcN6P” value with glucosamine-6-phosphate [1] is less than 1e-05 s⁻¹.

As for G9C A33G, in the series with glucosamine-6-phosphate [1], the “self-cleavage kobs at 40 uM GlcN6P” value is less than 1e-05 s⁻¹. Moreover, the “self-cleavage kobs at 160 uM GlcN6P” value with glucosamine-6-phosphate [4] is less than 1e-05 s⁻¹. Moreover, the “self-cleavage kobs at 2500 uM GlcN6P” value with glucosamine-6-phosphate [5] is less than 1e-05 s⁻¹.

As to C10G A12G, the “self-cleavage kobs at 40 uM GlcN6P” value with glucosamine-6-phosphate [1] is less than 1e-05 s⁻¹. In addition, in the series with glucosamine-6-phosphate [3], the “self-cleavage kobs at 640 uM GlcN6P” value was less than 1e-05 s⁻¹. Further, the “self-cleavage kobs at 160 uM GlcN6P” value in the series with glucosamine-6-phosphate [4] was less than 1e-05 s⁻¹.

As for C10A G13U U30C G43C A52U, the “self-cleavage kobs at 40 uM GlcN6P” value with glucosamine-6-phosphate [1] was less than 1e-05 s⁻¹. Besides, in the series with glucosamine-6-phosphate [2], the “self-cleavage kobs at 10000 uM GlcN6P” value was less than 1e-05 s⁻¹.

Consider G9U A12C U49A, for which, in the series with glucosamine-6-phosphate [1], the “self-cleavage kobs at 40 uM GlcN6P” value is less than 1e-05 s⁻¹.

For the variant C10U A12U G35U, the “self-cleavage kobs at 40 uM GlcN6P” value with glucosamine-6-phosphate [1] is less than 1e-05 s⁻¹. Moreover, the “self-cleavage kobs at 640 uM GlcN6P” value in the series with glucosamine-6-phosphate [3] was less than 1e-05 s⁻¹. The “self-cleavage kobs at 160 uM GlcN6P” value in the series with glucosamine-6-phosphate [4] is less than 1e-05 s⁻¹. Also, the “self-cleavage kobs at 2500 uM GlcN6P” value with glucosamine-6-phosphate [5] was less than 1e-05 s⁻¹. Besides, in the series with glucosamine-6-phosphate [2], the “self-cleavage kobs at 10000 uM GlcN6P” value is less than 1e-05 s⁻¹.

For C10G C61A, the “self-cleavage kobs at 40 uM GlcN6P” value with glucosamine-6-phosphate [1] is less than 1e-05 s⁻¹.

C10G A52G: the “self-cleavage kobs at 40 uM GlcN6P” value in the series with glucosamine-6-phosphate [1] is less than 1e-05 s⁻¹. Also, the “self-cleavage kobs at 2500 uM GlcN6P” value in the series with glucosamine-6-phosphate [5] is less than 1e-05 s⁻¹. Also, the “self-cleavage kobs at 10000 uM GlcN6P” value with glucosamine-6-phosphate [2] was less than 1e-05 s⁻¹.

As for C10G A33U, the “self-cleavage kobs at 40 uM GlcN6P” value with glucosamine-6-phosphate [1] is less than 1e-05 s⁻¹. The “self-cleavage kobs at 640 uM GlcN6P” value in the series with glucosamine-6-phosphate [3] is less than 1e-05 s⁻¹. Besides, in the series with glucosamine-6-phosphate [4], the “self-cleavage kobs at 160 uM GlcN6P” value was less than 1e-05 s⁻¹. In the series with glucosamine-6-phosphate [5], the “self-cleavage kobs at 2500 uM GlcN6P” value is less than 1e-05 s⁻¹. Moreover, the “self-cleavage kobs at 10000 uM GlcN6P” value in the series with glucosamine-6-phosphate [2] was less than 1e-05 s⁻¹.

Regarding C10A A12U G32C, in the series with glucosamine-6-phosphate [1], the “self-cleavage kobs at 40 uM GlcN6P” value is less than 1e-05 s⁻¹.

As for G9A G60U, in the series with glucosamine-6-phosphate [1], the “self-cleavage kobs at 40 uM GlcN6P” value is less than 1e-05 s⁻¹. Besides, the “self-cleavage kobs at 640 uM GlcN6P” value with glucosamine-6-phosphate [3] is less than 1e-05 s⁻¹. For the same variant, the “self-cleavage kobs at 2500 uM GlcN6P” value with glucosamine-6-phosphate [5] is less than 1e-05 s⁻¹. Also, the “self-cleavage kobs at 10000 uM GlcN6P” value with glucosamine-6-phosphate [2] was less than 1e-05 s⁻¹.

With G9A G60C, the “self-cleavage kobs at 40 uM GlcN6P” value with glucosamine-6-phosphate [1] is less than 1e-05 s⁻¹. Further, the “self-cleavage kobs at 640 uM GlcN6P” value with glucosamine-6-phosphate [3] was less than 1e-05 s⁻¹. Further, in the series with glucosamine-6-phosphate [4], the “self-cleavage kobs at 160 uM GlcN6P” value was less than 1e-05 s⁻¹. Also, in the series with glucosamine-6-phosphate [5], the “self-cleavage kobs at 2500 uM GlcN6P” value was less than 1e-05 s⁻¹.
